Results from the supplement of paper PMC4604168 (melanoma cell lines).
The list shows a part of the results. Single values are uncertain, as repeats are few or missing.
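Further: cells treated in 1,536-well plates, then fixed and DAPI-stained, with nuclei counted from automated high-throughput microscope images.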

These compounds were tested on A375 (assay: cell count relative to DMSO control; melanoma cells; higher = more viable cells). Details: library dose: standard library concentration; 72 h.
`C/C(O)=C(\C#N)C(=O)Nc1cc(Br)ccc1Br` + O=C1NC(=O)/C(=C/c2ccc(-c3ccc(F)cc3O)o2)S1 [AS252424] (first compound 10 µM, partner dose 5 µM) showed a cell count of 130%.
`O=c1[nH]nc(Sc2ncc([N+](=O)[O-])s2)n1-c1ccc2c(c1)OCCO2` + O=C(Oc1ccc([N+](=O)[O-])cc1)N1CCC(C(O)(c2ccc3c(c2)OCO3)c2ccc3c(c2)OCO3)CC1 [JZL184] (first compound 1 µM, partner dose 5 µM) was tested, and the cell count was 110%.
With `NC(=O)Nc1cc(-c2cccc(F)c2)sc1C(=O)N[C@H]1CCCNC1` + O=C(Oc1ccc([N+](=O)[O-])cc1)N1CCC(C(O)(c2ccc3c(c2)OCO3)c2ccc3c(c2)OCO3)CC1 [JZL184] (first compound 0.1 µM, partner dose 5 µM) the cell count was 50.9%.
With `CCCS(=O)(=O)Nc1ccc(F)c(C(=O)c2c[nH]c3ncc(Cl)cc23)c1F` + O=C(Oc1ccc([N+](=O)[O-])cc1)N1CCC(C(O)(c2ccc3c(c2)OCO3)c2ccc3c(c2)OCO3)CC1 [JZL184] (first compound 0.4 µM, partner dose 5 µM) the cell count was 95.6%.
Work on `O=C(Oc1ccc([N+](=O)[O-])cc1)N1CCC(C(O)(c2ccc3c(c2)OCO3)c2ccc3c(c2)OCO3)CC1` + CC(C)CCN1c2nc(Nc3cc(F)c(O)c(F)c3)ncc2N(C)C(=O)C1C [BID1870] (first compound 5 µM, partner dose 1 µM) yielded a cell count of 104%.
In the case of `COc1cc(Nc2ncc(F)c(Nc3ccc4c(n3)NC(=O)C(C)(C)O4)n2)cc(OC)c1OC` [Tamatinib] + Cc1cc(SCc2sc(-c3ccc(C(F)(F)F)c(F)c3)nc2C)ccc1OCC(=O)O [GW0742] (first compound 2 µM, partner dose 10 µM), the cell count was 141%.
Work on `COc1cc2c(Oc3ccc4[nH]c(C)cc4c3F)ncnc2cc1OCCCN1CCCC1` [cediranib] + O=C(Oc1ccc([N+](=O)[O-])cc1)N1CCC(C(O)(c2ccc3c(c2)OCO3)c2ccc3c(c2)OCO3)CC1 [JZL184] (first compound 2 µM, partner dose 5 µM) yielded a cell count of 107%.
Work on `COc1cc(Nc2ncc(F)c(Nc3ccc4c(n3)NC(=O)C(C)(C)O4)n2)cc(OC)c1OC` [Tamatinib] + C/C(O)=C(\C#N)C(=O)Nc1cc(Br)ccc1Br [LFM-A13] (first compound 2 µM, partner dose 10 µM) yielded a cell count of 133%.
`O=C(/C=C/c1cccnc1)NCCCCC1CCN(C(=O)c2ccccc2)CC1` + Cc1cc(SCc2sc(-c3ccc(C(F)(F)F)c(F)c3)nc2C)ccc1OCC(=O)O [GW0742] (first compound 0.05 µM, partner dose 10 µM) gave a cell count of 133%.
For `Nc1nc(F)nc2c1ncn2[C@@H]1O[C@H](CO)[C@@H](O)[C@@H]1O` [fludarabine] + Cc1cc(SCc2sc(-c3ccc(C(F)(F)F)c(F)c3)nc2C)ccc1OCC(=O)O [GW0742] (first compound 1 µM, partner dose 10 µM), the cell count was 40.2%.
In the case of `CC1(C)CCC(c2ccc(Cl)cc2)=C(CN2CCN(c3ccc(C(=O)NS(=O)(=O)c4ccc(N[C@H](CCN5CCOCC5)CSc5ccccc5)c(S(=O)(=O)C(F)(F)F)c4)cc3)CC2)C1` + O=C(Oc1ccc([N+](=O)[O-])cc1)N1CCC(C(O)(c2ccc3c(c2)OCO3)c2ccc3c(c2)OCO3)CC1 [JZL184] (first compound 2 µM, partner dose 5 µM), the cell count was 57.5%.
`Cn1c(=O)n(-c2ccc(C(C)(C)C#N)cc2)c2c3cc(-c4cnc5ccccc5c4)ccc3ncc21` + Cc1cc(SCc2sc(-c3ccc(C(F)(F)F)c(F)c3)nc2C)ccc1OCC(=O)O [GW0742] (first compound 0.02 µM, partner dose 10 µM) showed a cell count of 114%.
In the case of `NCC(=O)Nc1ccc(-n2nc(C(F)(F)F)cc2-c2ccc3c(ccc4ccccc43)c2)cc1` + Cc1cc(SCc2sc(-c3ccc(C(F)(F)F)c(F)c3)nc2C)ccc1OCC(=O)O [GW0742] (first compound 5 µM, partner dose 10 µM), the cell count was 38%.
For `O=C(Nc1cccc(Cl)c1)Nc1ncc(CCNc2ncnc3ccsc23)s1` + O=C(Oc1ccc([N+](=O)[O-])cc1)N1CCC(C(O)(c2ccc3c(c2)OCO3)c2ccc3c(c2)OCO3)CC1 [JZL184] (first compound 0.004 µM, partner dose 5 µM), the cell count was 85.6%.
With `CN(C)S(=O)(=O)c1ccc2c(c1)/C(=C/c1cc3c([nH]1)CCCC3)C(=O)N2` + C/C(O)=C(\C#N)C(=O)Nc1cc(Br)ccc1Br [LFM-A13] (first compound 2 µM, partner dose 10 µM) the cell count was 124%.
`C[C@]1(c2nc3c(C(N)=O)cccc3[nH]2)CCCN1` [Veliparib] + O=C(Oc1ccc([N+](=O)[O-])cc1)N1CCC(C(O)(c2ccc3c(c2)OCO3)c2ccc3c(c2)OCO3)CC1 [JZL184] (first compound 7 µM, partner dose 5 µM) gave a cell count of 65.3%.
